According to PMC7337490:
These are yes or no findings as the source states them, for the method shown.

By UniProt entry, the sequences of proteins in these tests, tags left out. Where a name states a change or a piece, a line headed by the entry shows the natural chain unless it says otherwise.
UniProt O15392: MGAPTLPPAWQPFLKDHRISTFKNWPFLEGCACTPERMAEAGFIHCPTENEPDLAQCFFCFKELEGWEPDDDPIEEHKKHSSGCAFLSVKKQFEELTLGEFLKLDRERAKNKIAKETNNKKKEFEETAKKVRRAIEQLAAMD
UniProt Q9NQS7: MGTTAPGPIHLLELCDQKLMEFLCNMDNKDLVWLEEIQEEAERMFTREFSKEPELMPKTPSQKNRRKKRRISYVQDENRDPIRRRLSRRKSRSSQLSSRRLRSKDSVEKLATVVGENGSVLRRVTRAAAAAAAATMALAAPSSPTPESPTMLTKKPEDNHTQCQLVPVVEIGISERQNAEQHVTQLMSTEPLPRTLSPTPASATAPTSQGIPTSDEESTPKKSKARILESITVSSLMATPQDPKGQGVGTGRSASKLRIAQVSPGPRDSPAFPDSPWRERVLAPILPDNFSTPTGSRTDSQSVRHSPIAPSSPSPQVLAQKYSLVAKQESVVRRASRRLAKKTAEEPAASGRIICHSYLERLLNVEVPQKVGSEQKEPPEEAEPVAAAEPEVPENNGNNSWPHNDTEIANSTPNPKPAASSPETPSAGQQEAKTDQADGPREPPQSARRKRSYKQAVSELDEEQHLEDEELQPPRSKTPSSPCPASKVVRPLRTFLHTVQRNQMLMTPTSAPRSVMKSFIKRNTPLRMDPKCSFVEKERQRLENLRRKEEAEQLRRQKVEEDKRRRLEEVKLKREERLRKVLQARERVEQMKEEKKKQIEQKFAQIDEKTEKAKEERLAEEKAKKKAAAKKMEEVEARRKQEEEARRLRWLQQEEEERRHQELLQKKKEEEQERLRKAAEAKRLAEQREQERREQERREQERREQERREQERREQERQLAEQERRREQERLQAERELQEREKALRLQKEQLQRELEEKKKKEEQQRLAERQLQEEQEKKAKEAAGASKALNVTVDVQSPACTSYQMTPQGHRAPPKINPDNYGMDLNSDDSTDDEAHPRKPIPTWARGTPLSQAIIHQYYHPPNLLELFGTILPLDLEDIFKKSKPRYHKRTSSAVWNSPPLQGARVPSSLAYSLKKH
UniProt Q53HL2: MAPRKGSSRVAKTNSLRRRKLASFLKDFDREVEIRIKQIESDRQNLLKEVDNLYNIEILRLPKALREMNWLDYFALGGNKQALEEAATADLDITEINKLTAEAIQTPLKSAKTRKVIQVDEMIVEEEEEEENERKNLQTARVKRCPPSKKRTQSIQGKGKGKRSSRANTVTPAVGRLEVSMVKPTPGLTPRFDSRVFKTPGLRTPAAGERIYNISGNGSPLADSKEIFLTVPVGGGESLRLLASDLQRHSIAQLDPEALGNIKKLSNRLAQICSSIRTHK

Columns and labels:
[1] = biological target: CPI80^(Survivin E65A-H80A) (human) (UniProt O15392+Q9NQS7+Q53HL2); assay: ITC; 400 µM peptide injected into 50 µM protein; 100 mM NaCl, 20 mM Tris-HCl pH 7.2, 1 mM DTT; 25°C; 1:1 binding model; both purified
[2] = biological target: CPI80 (survivin, INCENP^1-80, borealin^10-109) (human) (UniProt O15392+Q9NQS7+Q53HL2); assay: as above

Row | Binder | binding [1] | binding [2]
1 | ARTKQTARKSTG [H3 (1–12) peptide] | no binding (tested: 50 µM protein, 400 µM peptide) | 
2 | ARTKQTARKSTG (phosphothreonine at 3) [H3pT3 (1–12) phosphopeptide] | no binding (tested: 50 µM protein, 400 µM peptide) | 
3 | KKTESHHKAKG [H2A (119–129) peptide] |  | no binding (tested: 50 µM protein, 400 µM peptide)
4 | KKTESHHKAKG (phosphothreonine at 121) [H2ApT121 (119–129) phosphopeptide] |  | no binding (tested: 50 µM protein, 400 µM peptide)
